The campaign covered roughly 310,000 compounds. About 2,200 (0.71%) showed an effect of 50% or more. Effects have a minus sign here. The list shows a part of the results.
These molecules were tested against human ether-à-go-go-related gene (hERG) potassium channel (human, UniProt Q12809) (assay: primary screen, population patch clamp on CHO cells stably expressing hERG).
Chain of human ether-à-go-go-related gene (hERG) potassium channel (Q12809 whole entry, looked up): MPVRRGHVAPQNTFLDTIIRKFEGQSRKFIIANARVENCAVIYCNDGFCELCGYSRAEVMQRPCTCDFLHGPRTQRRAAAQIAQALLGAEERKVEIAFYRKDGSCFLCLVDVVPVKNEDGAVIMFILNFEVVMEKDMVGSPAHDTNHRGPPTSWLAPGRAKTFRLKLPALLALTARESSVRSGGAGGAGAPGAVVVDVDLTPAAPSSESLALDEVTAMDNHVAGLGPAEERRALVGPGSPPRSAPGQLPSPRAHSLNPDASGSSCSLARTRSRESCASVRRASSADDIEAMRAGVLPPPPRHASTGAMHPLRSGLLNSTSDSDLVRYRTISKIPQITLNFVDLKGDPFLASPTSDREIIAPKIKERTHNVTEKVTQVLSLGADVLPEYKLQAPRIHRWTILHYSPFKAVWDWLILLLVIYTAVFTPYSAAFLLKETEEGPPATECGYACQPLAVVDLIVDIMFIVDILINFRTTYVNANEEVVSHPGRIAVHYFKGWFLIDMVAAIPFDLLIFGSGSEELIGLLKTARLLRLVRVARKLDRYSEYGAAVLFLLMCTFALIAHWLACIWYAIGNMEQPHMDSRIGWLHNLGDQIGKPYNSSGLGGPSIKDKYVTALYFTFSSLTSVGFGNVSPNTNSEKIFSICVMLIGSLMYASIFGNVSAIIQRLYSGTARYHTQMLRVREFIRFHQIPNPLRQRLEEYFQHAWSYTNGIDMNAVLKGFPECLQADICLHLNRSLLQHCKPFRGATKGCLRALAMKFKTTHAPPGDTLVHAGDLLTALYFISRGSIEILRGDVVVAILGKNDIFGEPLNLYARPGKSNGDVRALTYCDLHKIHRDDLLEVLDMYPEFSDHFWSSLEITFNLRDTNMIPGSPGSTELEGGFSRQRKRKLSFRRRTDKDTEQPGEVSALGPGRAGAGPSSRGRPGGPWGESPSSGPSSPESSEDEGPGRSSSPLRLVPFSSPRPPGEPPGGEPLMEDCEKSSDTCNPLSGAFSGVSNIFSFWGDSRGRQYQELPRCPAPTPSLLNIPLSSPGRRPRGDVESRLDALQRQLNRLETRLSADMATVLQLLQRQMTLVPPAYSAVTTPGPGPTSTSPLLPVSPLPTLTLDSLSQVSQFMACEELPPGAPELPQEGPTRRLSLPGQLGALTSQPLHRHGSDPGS

Which “hERG current change (%, negative = inhibition) at 1uM” value does the source give for `COc1cccc(C(=O)N2CCN(Cc3cccc(F)c3)CC2)c1.O=C(O)C(=O)O` here?
The value was 12.4%.

With `O=C(NCCc1ccccc1)C(=O)NC1CCCCC1` as the molecule, how does the “hERG current change (%, negative = inhibition) at 1uM” value read?
Its value is 10%.

With `COC(=O)/C(=C\Nc1ccccc1N)c1ncc(C(F)(F)F)cc1Cl` as the molecule, how does the “hERG current change (%, negative = inhibition) at 1uM” value read?
The value was 6.66%.

With `CC(=O)Nc1ccc(C(=O)CSc2nnc(Cn3nnc4ccccc43)n2C)cc1` as the molecule, how does the “hERG current change (%, negative = inhibition) at 1uM” value read?
The value was 9.17%.

Which “hERG current change (%, negative = inhibition) at 1uM” value does the source give for `Cc1c(Cl)cccc1NC(=S)Nc1ccc2[nH]c(=O)[nH]c2c1` here?
Its value is 5.15%.

`Cc1cc(C)cc(OCC(=O)NNC(=O)C2CCCO2)c1` (stereo not drawn) was tested. Which “hERG current change (%, negative = inhibition) at 1uM” value did it give?
The value was 9.09%.

How did the “hERG current change (%, negative = inhibition) at 1uM” value turn out when `CC1=NN=C(c2ccccc2)C(c2c[nH]c3ccccc23)N1O` (stereo not drawn) was run?
The value was 22%.

For `Cc1ccc2c(COC(=O)c3ccccc3Cl)cc(=O)oc2c1`, which “hERG current change (%, negative = inhibition) at 1uM” value is on record?
Its value is 19.7%.

Which “hERG current change (%, negative = inhibition) at 1uM” value does the source give for `O=C(CNS(=O)(=O)c1ccc([N+](=O)[O-])cc1)N/N=C\c1ccc(O)cc1` here?
The value was 14.2%.

Which “hERG current change (%, negative = inhibition) at 1uM” value does the source give for `CCN(CC(=O)NCc1cccs1)C(=O)c1cc(S(=O)(=O)NCc2ccccc2)ccc1C` here?
Its value is -7.97%.

With `O=C(CCC1CCCCC1)Nc1nccs1` as the molecule, how does the “hERG current change (%, negative = inhibition) at 1uM” value read?
Its value is -2.61%.

For `Cc1cccc(NC(=O)C(C)N2CC=C(c3ccccc3)CC2)c1` (stereo not drawn), which “hERG current change (%, negative = inhibition) at 1uM” value is on record?
Its value is 10.8%.

For `COc1cc(C#CC#CCN2CCCCC2)ccc1O.Cl`, which “hERG current change (%, negative = inhibition) at 1uM” value is on record?
The value was -0.226%.

How did the “hERG current change (%, negative = inhibition) at 1uM” value turn out when `CSc1ccc(C2C3(C#N)C(N)=NC4(OCCO4)C23C#N)cc1` (stereo not drawn) was run?
Its value is 3.95%.

`COc1ccc(-c2csc(NC(=O)CSc3nnc(Nc4ccccc4C)s3)n2)cc1` was tested. Which “hERG current change (%, negative = inhibition) at 1uM” value did it give?
Its value is 2.61%.

For `Cc1ccsc1C(=O)c1sccc1C`, which “hERG current change (%, negative = inhibition) at 1uM” value is on record?
The value was 10.6%.

For `Cc1noc(C)c1COC(=O)COc1ccc(-c2ccccc2)cc1`, which “hERG current change (%, negative = inhibition) at 1uM” value is on record?
Its value is 8.49%.

With `CCC(C)Sc1ccc([C@H]2N[C@@](Cc3ccccc3)(C(=O)OC)[C@H]3C(=O)N(C)C(=O)[C@@H]23)cc1.O=C(O)C(F)(F)F` (stereo partly drawn) as the molecule, how does the “hERG current change (%, negative = inhibition) at 1uM” value read?
The value was 0.708%.

Which “hERG current change (%, negative = inhibition) at 1uM” value does the source give for `O=C1S/C(=C\c2ccccc2)C(=O)N1CC(O)Cn1c2ccccc2c2ccccc21` (stereo not drawn) here?
Its value is 14.6%.

Which “hERG current change (%, negative = inhibition) at 1uM” value does the source give for `COCOc1ccc(-c2oc3c(C/C=C(\C)CCC=C(C)C)ccc(O)c3c(=O)c2OCOC)c(OCOC)c1` here?
Its value is -0.0528%.

How did the “hERG current change (%, negative = inhibition) at 1uM” value turn out when `CCn1c(SCC(=O)N2CCCCCC2)nc2c([nH]c3ccccc32)c1=O` was run?
The value was -3.2%.

For `CC1(C)CC(CCC(=O)Nc2ccc(S(N)(=O)=O)cc2)C(=O)O1` (stereo not drawn), which “hERG current change (%, negative = inhibition) at 1uM” value is on record?
Its value is 20.4%.

For `O=C(/C(C=Nc1ccc(F)cc1)=C(/O)c1ccco1)C(F)(F)F`, which “hERG current change (%, negative = inhibition) at 1uM” value is on record?
Its value is 3.35%.

`COc1ccc(S(=O)(=O)CC2(O)CCN(C(=O)CC(C)C)CC2)cc1` was tested. Which “hERG current change (%, negative = inhibition) at 1uM” value did it give?
Its value is 4.28%.

For `CC(=O)Oc1ccc(N2C(=O)CCC2=O)cc1`, which “hERG current change (%, negative = inhibition) at 1uM” value is on record?
The value was 16.1%.

For `COc1cccc2c(=O)n(CC(=O)N3CCCCCC3)ccc12`, which “hERG current change (%, negative = inhibition) at 1uM” value is on record?
The value was 9.83%.

`CC(C)c1nc(SCC(=O)NC2CCCC2)c2c(=O)n(C)c(=O)n(C)c2n1` was tested. Which “hERG current change (%, negative = inhibition) at 1uM” value did it give?
The value was 13.9%.

`COc1cc(C(=O)N(C)C2CCCN(Cc3ccccc3F)C2)cc(OC)c1OC` (stereo not drawn) was tested. Which “hERG current change (%, negative = inhibition) at 1uM” value did it give?
Its value is 10.2%.

With `Cc1cccnc1NC(=O)CCn1c(=O)oc2ccccc21` as the molecule, how does the “hERG current change (%, negative = inhibition) at 1uM” value read?
The value was 15.4%.

For `COc1ccc(S(=O)(=O)N2CCCCC2)cc1C(C)C`, which “hERG current change (%, negative = inhibition) at 1uM” value is on record?
The value was 7.64%.

For `Cc1cccc(C)c1NC(=O)CNC(=O)C1COc2ccccc2O1` (stereo not drawn), which “hERG current change (%, negative = inhibition) at 1uM” value is on record?
Its value is 19.4%.

Which “hERG current change (%, negative = inhibition) at 1uM” value does the source give for `Cc1ccccc1N1C(=O)C(Oc2ccc(Cl)cc2)C1CNCC1CCCO1.Cl` (stereo not drawn) here?
Its value is -12.5%.

How did the “hERG current change (%, negative = inhibition) at 1uM” value turn out when `Cc1cccc(NC(=O)c2cc(-c3cc(C)cc(C)c3O)n[nH]2)c1` was run?
The value was 21.4%.

`COc1ccccc1OCC(=O)NCCCn1ccnc1` was tested. Which “hERG current change (%, negative = inhibition) at 1uM” value did it give?
The value was 10.4%.

How did the “hERG current change (%, negative = inhibition) at 1uM” value turn out when `O=S(=O)(O/N=C1\CCCc2ccccc21)c1ccc(Cl)cc1` was run?
The value was 11.7%.

`Cc1cc(N/N=C/c2ccc(N(C)C)cc2)nc(NCc2ccccc2)n1` was tested. Which “hERG current change (%, negative = inhibition) at 1uM” value did it give?
Its value is 8.2%.

`Cc1cc(N2CCN(C)CC2)nc2ccc(NC(=S)N3CCN(c4ccccn4)CC3)cc12` was tested. Which “hERG current change (%, negative = inhibition) at 1uM” value did it give?
The value was 9.76%.

`CCN(CC)C(=O)CSc1nc2ncc(Cl)cc2[nH]1` was tested. Which “hERG current change (%, negative = inhibition) at 1uM” value did it give?
The value was 9.4%.

`Cc1ccc(C)c(C(=O)N(Cc2nc(-c3ccc(Cl)cc3)no2)C(C)C)c1` was tested. Which “hERG current change (%, negative = inhibition) at 1uM” value did it give?
The value was 7.31%.

How did the “hERG current change (%, negative = inhibition) at 1uM” value turn out when `O=C(COC(=O)CCN1C(=O)C2CC=CCC2C1=O)NCCc1ccc(F)cc1` (stereo not drawn) was run?
The value was -2.01%.

`COc1ccc(C(=O)Nn2c(C)nc3ccccc3c2=O)cc1` was tested. Which “hERG current change (%, negative = inhibition) at 1uM” value did it give?
The value was 10.4%.

For `CCc1cc2c(-c3ccccc3)cc(=O)oc2cc1OCC(C)=O`, which “hERG current change (%, negative = inhibition) at 1uM” value is on record?
Its value is 8.68%.

Reference: publication PMC4336329 (PLoS ONE, 2015)
